Reference: patent US9562022B2 (priority 2009, dated 2017)

Each compound was assayed on P23H opsin. Conditions: 20 μM test compound; HEK 293 cells; % of mature P23H opsin (~52 kDA) relative to control 9-cis retinal at 20 uM defined as 100% response.

For `CC1=C(/C=C/C(=O)N2CCOCC2)C(C)(C)CCC1` [Compound 6, (E)-1-Morpholino-3-(2,6,6-trimethylcyclohex-1-enyl)prop-2-en-1-one], which “Increase in Mature P23H Opsin” value is on record?
Its value is 113% @ 20 μM.

`CNC(=O)N1CCCN(C(=O)/C=C/C2=C(C)CCCC2(C)C)CC1` [Compound 14, (E)-N-Methyl-4-(3-(2,6,6-trimethylcyclohex-1-enyl)acryloyl)-1,4-diazepane-1-carboxamide] was tested. Which “Increase in Mature P23H Opsin” value did it give?
Its value is 144% @ 20 μM.

`CCNC(=O)N1CCCN(C(=O)/C=C/C2=C(C)CCCC2(C)C)CC1` [Compound 15, (E)-N-Ethyl-4-(3-(2,6,6-trimethylcyclohex-1-enyl)acryloyl)-1,4-diazepane-1-carboxamide] was tested. Which “Increase in Mature P23H Opsin” value did it give?
Its value is 113% @ 20 μM.

Which “Increase in Mature P23H Opsin” value does the source give for `CC1=C(/C=C/C(=O)N2CCCN(C(=O)NC(C)C)CC2)C(C)(C)CCC1` [Compound 17, (E)-N-Isopropyl-4-(3-(2,6,6-trimethylcyclohex-1-enyl)acryloyl)-1,4-diazepane-1-carboxamide] here?
Its value is 132% @ 20 μM.

Which “Increase in Mature P23H Opsin” value does the source give for `CCS(=O)(=O)N1CCCN(C(=O)/C=C/C2=C(C)CCCC2(C)C)CC1` [Compound 21, (E)-1-(4-(Ethylsulfonyl)-1,4-diazepan-1-yl)-3-(2,6,6-trimethylcyclohex-1-enyl)prop-2-en-1-one] here?
Its value is 89% @ 20 μM.

How did the “Increase in Mature P23H Opsin” value turn out when `CCCN1CCN(C(=O)/C=C/C2=C(C)CCCC2(C)C)CC1` [Compound 29, (E)-1-(4-Propylpiperazin-1-yl)-3-(2,6,6-trimethylcyclohex-1-enyl)prop-2-en-1-one] was run?
Its value is 97% @ 20 μM.

With `CNC(=O)N1CCN(C(=O)/C=C/C2=C(C)CCCC2(C)C)CC1` [Compound 34, (E)-N-Methyl-4-(3-(2,6,6-trimethylcyclohex-1-enyl)acryloyl)piperazine-1-carboxamide] as the compound, how does the “Increase in Mature P23H Opsin” value read?
Its value is 155% @ 20 μM.

`CC1=C(/C=C/C(=O)N2CCN(C(=O)NC(C)C)CC2)C(C)(C)CCC1` [Compound 37, (E)-N-Isopropyl-4-(3-(2,6,6-trimethylcyclohex-1-enyl)acryloyl)piperazine-1-carboxamide] was tested. Which “Increase in Mature P23H Opsin” value did it give?
Its value is 136% @ 20 μM.

Which “Increase in Mature P23H Opsin” value does the source give for `CCNC(=S)N1CCN(C(=O)/C=C/C2=C(C)CCCC2(C)C)CC1` [Compound 44, (E)-N-Ethyl-4-(3-(2,6,6-trimethylcyclohex-1-enyl)acryloyl)piperazine-1-carbothioamide] here?
Its value is 136% @ 20 μM.

`CCCNC(=S)N1CCN(C(=O)/C=C/C2=C(C)CCCC2(C)C)CC1` [Compound 45, (E)-N-Propyl-4-(3-(2,6,6-trimethylcyclohex-1-enyl)acryloyl)piperazine-1-carbothioamide] was tested. Which “Increase in Mature P23H Opsin” value did it give?
Its value is 122% @ 20 μM.

Same assay, conditions: control at 20 uM, defined as producing a 100% response

`CC1=C(/C=C/C(C)=C\C=C\C(C)=C\C=O)C(C)(C)CCC1` [9-cis retinal, reference compound] was tested. Which “% of mature P23H opsin (~52 kDA) produced in the HEK 293 cells” value did it give?
Its value is 100%.
